Measured values reported in publication PMC3694053.
No constants are given. Whether binding was seen depends on the method and setting. In cells and extracts the contact can be indirect. Some entries that bind do so weakly or less than the wild type. For part of these data: Tags and fused reporters may be left off the sequences shown. Each block holds one molecule with its values, some of them ahead of it.

Chains of the proteins cited; added tags and fusions are not shown. Lines headed by an entry give the natural chain unless they say otherwise; changes in a name come on top.
UniProt Q15208: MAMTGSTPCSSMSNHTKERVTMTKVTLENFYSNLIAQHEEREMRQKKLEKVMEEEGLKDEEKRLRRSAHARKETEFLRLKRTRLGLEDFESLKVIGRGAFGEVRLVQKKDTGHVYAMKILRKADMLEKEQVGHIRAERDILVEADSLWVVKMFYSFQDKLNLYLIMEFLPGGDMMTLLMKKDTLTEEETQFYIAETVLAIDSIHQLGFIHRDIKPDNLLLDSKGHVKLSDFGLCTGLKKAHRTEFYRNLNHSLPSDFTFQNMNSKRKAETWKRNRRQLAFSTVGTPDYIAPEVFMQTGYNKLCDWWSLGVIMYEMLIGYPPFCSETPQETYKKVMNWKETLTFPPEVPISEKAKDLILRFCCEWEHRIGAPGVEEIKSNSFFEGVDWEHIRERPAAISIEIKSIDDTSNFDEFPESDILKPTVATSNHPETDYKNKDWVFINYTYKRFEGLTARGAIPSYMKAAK

Tests used:
[1] = biological target: T1, endogenous SnoN (human (endogenous in 293T)) (UniProt P12757); assay: co-IP; 293T cells expressing Rluc, Rluc-SnoN or Rluc-NDR1; immunoprecipitation of the endogenous partner (NDR1 or SnoN antibody, IgG as control), Renilla luciferase activity of the immunoprecipitate as read-out
T1 sequence: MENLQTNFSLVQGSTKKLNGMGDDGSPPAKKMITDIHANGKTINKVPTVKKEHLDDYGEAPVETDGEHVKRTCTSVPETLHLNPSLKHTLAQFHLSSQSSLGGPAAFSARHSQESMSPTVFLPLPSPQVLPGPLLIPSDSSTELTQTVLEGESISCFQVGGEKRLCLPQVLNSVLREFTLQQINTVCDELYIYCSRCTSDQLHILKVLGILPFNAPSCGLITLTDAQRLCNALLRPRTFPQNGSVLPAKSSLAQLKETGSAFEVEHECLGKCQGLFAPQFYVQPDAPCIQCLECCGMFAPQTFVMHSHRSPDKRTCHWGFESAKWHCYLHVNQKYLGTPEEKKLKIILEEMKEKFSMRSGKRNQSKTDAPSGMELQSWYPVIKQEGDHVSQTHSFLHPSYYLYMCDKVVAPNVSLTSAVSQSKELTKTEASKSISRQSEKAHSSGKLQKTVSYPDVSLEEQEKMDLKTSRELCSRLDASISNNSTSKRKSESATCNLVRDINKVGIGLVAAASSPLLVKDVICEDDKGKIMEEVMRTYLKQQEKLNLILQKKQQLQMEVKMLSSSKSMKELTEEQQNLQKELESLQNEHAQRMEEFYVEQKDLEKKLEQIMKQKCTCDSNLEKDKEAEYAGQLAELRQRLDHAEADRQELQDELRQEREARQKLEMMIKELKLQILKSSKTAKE

MYC-SnoN = biological target: T2, MYC-SnoN (UniProt P12757); assay: co-IP; 293T cells expressing Rluc-NDR1 (wild type or deletion mutants) alone or with MYC-SnoN; immunoprecipitation with the MYC or SnoN antibody, Renilla luciferase activity of the immunoprecipitate normalised to expression
T2 sequence: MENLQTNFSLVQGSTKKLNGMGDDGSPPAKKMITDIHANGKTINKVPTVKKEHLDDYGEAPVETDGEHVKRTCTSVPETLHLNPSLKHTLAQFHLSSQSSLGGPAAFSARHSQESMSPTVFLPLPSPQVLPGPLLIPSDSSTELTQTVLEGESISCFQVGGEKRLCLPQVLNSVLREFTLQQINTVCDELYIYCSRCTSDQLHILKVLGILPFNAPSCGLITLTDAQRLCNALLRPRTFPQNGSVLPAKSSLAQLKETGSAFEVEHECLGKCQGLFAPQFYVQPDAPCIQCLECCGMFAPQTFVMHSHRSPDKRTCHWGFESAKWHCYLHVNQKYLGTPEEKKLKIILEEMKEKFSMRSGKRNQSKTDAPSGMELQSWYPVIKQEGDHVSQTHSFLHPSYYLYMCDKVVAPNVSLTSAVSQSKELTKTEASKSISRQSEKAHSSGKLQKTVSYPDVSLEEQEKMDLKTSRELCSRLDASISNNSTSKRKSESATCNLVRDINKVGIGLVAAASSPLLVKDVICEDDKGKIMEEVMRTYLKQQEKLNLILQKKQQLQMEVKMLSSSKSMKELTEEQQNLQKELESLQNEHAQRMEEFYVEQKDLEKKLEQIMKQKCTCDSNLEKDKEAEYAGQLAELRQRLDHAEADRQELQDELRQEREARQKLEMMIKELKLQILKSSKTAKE

HA-NDR1 [2] = biological target: HA-NDR1 (UniProt Q15208); assay: co-IP; 293T cells expressing Rluc-SnoN (wild type or deletion mutants) alone or with HA-NDR1; immunoprecipitation with the HA antibody, Renilla luciferase activity of the immunoprecipitate normalised to Rluc-SnoN and NDR1 expression
[3] = biological target: endogenous NDR1 (nuclear Dbf2-related 1) (human (endogenous in HaCaT and 293T)) (UniProt Q15208); assay: co-IP; untreated or TGFβ-treated 293T cells; immunoprecipitation with the NDR1 antibody or IgG, immunoblotting with the SnoN or NDR1 antibody; both proteins endogenous
HA-NDR1 [4] = biological target: HA-NDR1 (UniProt Q15208); assay: co-IP; 293T cells expressing MYC-SnoN and HA-NDR1; immunoprecipitation with the HA antibody or the SnoN antibody, immunoblotting; TNE-based buffer with 0.5% Triton X-100
[5] = biological target: endogenous NDR1 (nuclear Dbf2-related 1) (human (endogenous in HaCaT and 293T)) (UniProt Q15208); assay: co-IP; 293T cells expressing Rluc, Rluc-SnoN or Rluc-NDR1; immunoprecipitation of the endogenous partner (NDR1 or SnoN antibody, IgG as control), Renilla luciferase activity of the immunoprecipitate as read-out

binding (MYC-SnoN): binds
Molecule: Rluc-NDR1 with deletion of the N-terminal 82 amino acid residues (from UniProt Q15208 83-465) (domain or fragment)

binding (HA-NDR1 [2]): binds
B1: Rluc-SnoN lacking the N-terminal 96 amino acids (domain or fragment, UniProt P12757-1 97-684)
chain: SQSSLGGPAAFSARHSQESMSPTVFLPLPSPQVLPGPLLIPSDSSTELTQTVLEGESISCFQVGGEKRLCLPQVLNSVLREFTLQQINTVCDELYIYCSRCTSDQLHILKVLGILPFNAPSCGLITLTDAQRLCNALLRPRTFPQNGSVLPAKSSLAQLKETGSAFEVEHECLGKCQGLFAPQFYVQPDAPCIQCLECCGMFAPQTFVMHSHRSPDKRTCHWGFESAKWHCYLHVNQKYLGTPEEKKLKIILEEMKEKFSMRSGKRNQSKTDAPSGMELQSWYPVIKQEGDHVSQTHSFLHPSYYLYMCDKVVAPNVSLTSAVSQSKELTKTEASKSISRQSEKAHSSGKLQKTVSYPDVSLEEQEKMDLKTSRELCSRLDASISNNSTSKRKSESATCNLVRDINKVGIGLVAAASSPLLVKDVICEDDKGKIMEEVMRTYLKQQEKLNLILQKKQQLQMEVKMLSSSKSMKELTEEQQNLQKELESLQNEHAQRMEEFYVEQKDLEKKLEQIMKQKCTCDSNLEKDKEAEYAGQLAELRQRLDHAEADRQELQDELRQEREARQKLEMMIKELKLQILKSSKTAKE

binding (HA-NDR1 [2]): no binding
B2: Rluc-SnoN N-terminal 96 amino acids (domain or fragment, UniProt P12757-1 1-96)
chain: MENLQTNFSLVQGSTKKLNGMGDDGSPPAKKMITDIHANGKTINKVPTVKKEHLDDYGEAPVETDGEHVKRTCTSVPETLHLNPSLKHTLAQFHLS

The next lines start with the molecule.

Molecule: Rluc-NDR1 (wild type, aa1–465) (from UniProt Q15208 1-465)
binding [1]: binds | binding (MYC-SnoN): binds

B3: endogenous SnoN (protein, UniProt P12757-1 1-684)
chain: MENLQTNFSLVQGSTKKLNGMGDDGSPPAKKMITDIHANGKTINKVPTVKKEHLDDYGEAPVETDGEHVKRTCTSVPETLHLNPSLKHTLAQFHLSSQSSLGGPAAFSARHSQESMSPTVFLPLPSPQVLPGPLLIPSDSSTELTQTVLEGESISCFQVGGEKRLCLPQVLNSVLREFTLQQINTVCDELYIYCSRCTSDQLHILKVLGILPFNAPSCGLITLTDAQRLCNALLRPRTFPQNGSVLPAKSSLAQLKETGSAFEVEHECLGKCQGLFAPQFYVQPDAPCIQCLECCGMFAPQTFVMHSHRSPDKRTCHWGFESAKWHCYLHVNQKYLGTPEEKKLKIILEEMKEKFSMRSGKRNQSKTDAPSGMELQSWYPVIKQEGDHVSQTHSFLHPSYYLYMCDKVVAPNVSLTSAVSQSKELTKTEASKSISRQSEKAHSSGKLQKTVSYPDVSLEEQEKMDLKTSRELCSRLDASISNNSTSKRKSESATCNLVRDINKVGIGLVAAASSPLLVKDVICEDDKGKIMEEVMRTYLKQQEKLNLILQKKQQLQMEVKMLSSSKSMKELTEEQQNLQKELESLQNEHAQRMEEFYVEQKDLEKKLEQIMKQKCTCDSNLEKDKEAEYAGQLAELRQRLDHAEADRQELQDELRQEREARQKLEMMIKELKLQILKSSKTAKE
binding [3]: binds

B4: MYC-SnoN (protein, UniProt P12757-1 1-684)
chain: MENLQTNFSLVQGSTKKLNGMGDDGSPPAKKMITDIHANGKTINKVPTVKKEHLDDYGEAPVETDGEHVKRTCTSVPETLHLNPSLKHTLAQFHLSSQSSLGGPAAFSARHSQESMSPTVFLPLPSPQVLPGPLLIPSDSSTELTQTVLEGESISCFQVGGEKRLCLPQVLNSVLREFTLQQINTVCDELYIYCSRCTSDQLHILKVLGILPFNAPSCGLITLTDAQRLCNALLRPRTFPQNGSVLPAKSSLAQLKETGSAFEVEHECLGKCQGLFAPQFYVQPDAPCIQCLECCGMFAPQTFVMHSHRSPDKRTCHWGFESAKWHCYLHVNQKYLGTPEEKKLKIILEEMKEKFSMRSGKRNQSKTDAPSGMELQSWYPVIKQEGDHVSQTHSFLHPSYYLYMCDKVVAPNVSLTSAVSQSKELTKTEASKSISRQSEKAHSSGKLQKTVSYPDVSLEEQEKMDLKTSRELCSRLDASISNNSTSKRKSESATCNLVRDINKVGIGLVAAASSPLLVKDVICEDDKGKIMEEVMRTYLKQQEKLNLILQKKQQLQMEVKMLSSSKSMKELTEEQQNLQKELESLQNEHAQRMEEFYVEQKDLEKKLEQIMKQKCTCDSNLEKDKEAEYAGQLAELRQRLDHAEADRQELQDELRQEREARQKLEMMIKELKLQILKSSKTAKE
binding (HA-NDR1 [4]): binds

B5: Rluc-SnoN (wild type, aa 1–684) (protein, UniProt P12757-1 1-684)
chain: MENLQTNFSLVQGSTKKLNGMGDDGSPPAKKMITDIHANGKTINKVPTVKKEHLDDYGEAPVETDGEHVKRTCTSVPETLHLNPSLKHTLAQFHLSSQSSLGGPAAFSARHSQESMSPTVFLPLPSPQVLPGPLLIPSDSSTELTQTVLEGESISCFQVGGEKRLCLPQVLNSVLREFTLQQINTVCDELYIYCSRCTSDQLHILKVLGILPFNAPSCGLITLTDAQRLCNALLRPRTFPQNGSVLPAKSSLAQLKETGSAFEVEHECLGKCQGLFAPQFYVQPDAPCIQCLECCGMFAPQTFVMHSHRSPDKRTCHWGFESAKWHCYLHVNQKYLGTPEEKKLKIILEEMKEKFSMRSGKRNQSKTDAPSGMELQSWYPVIKQEGDHVSQTHSFLHPSYYLYMCDKVVAPNVSLTSAVSQSKELTKTEASKSISRQSEKAHSSGKLQKTVSYPDVSLEEQEKMDLKTSRELCSRLDASISNNSTSKRKSESATCNLVRDINKVGIGLVAAASSPLLVKDVICEDDKGKIMEEVMRTYLKQQEKLNLILQKKQQLQMEVKMLSSSKSMKELTEEQQNLQKELESLQNEHAQRMEEFYVEQKDLEKKLEQIMKQKCTCDSNLEKDKEAEYAGQLAELRQRLDHAEADRQELQDELRQEREARQKLEMMIKELKLQILKSSKTAKE
binding [5]: binds | binding (HA-NDR1 [2]): binds
